Test results published in paper PMC4336329 (PLoS ONE, 2015).
About 2,200 (0.71%) of roughly 310,000 compounds showed an effect of 50% or more. Effects have a minus sign here. This is one part of the list.

target: human ether-à-go-go-related gene (hERG) potassium channel (human, UniProt Q12809); assay: primary screen, population patch clamp on CHO cells stably expressing hERG
Sequence (Q12809 whole entry, looked up): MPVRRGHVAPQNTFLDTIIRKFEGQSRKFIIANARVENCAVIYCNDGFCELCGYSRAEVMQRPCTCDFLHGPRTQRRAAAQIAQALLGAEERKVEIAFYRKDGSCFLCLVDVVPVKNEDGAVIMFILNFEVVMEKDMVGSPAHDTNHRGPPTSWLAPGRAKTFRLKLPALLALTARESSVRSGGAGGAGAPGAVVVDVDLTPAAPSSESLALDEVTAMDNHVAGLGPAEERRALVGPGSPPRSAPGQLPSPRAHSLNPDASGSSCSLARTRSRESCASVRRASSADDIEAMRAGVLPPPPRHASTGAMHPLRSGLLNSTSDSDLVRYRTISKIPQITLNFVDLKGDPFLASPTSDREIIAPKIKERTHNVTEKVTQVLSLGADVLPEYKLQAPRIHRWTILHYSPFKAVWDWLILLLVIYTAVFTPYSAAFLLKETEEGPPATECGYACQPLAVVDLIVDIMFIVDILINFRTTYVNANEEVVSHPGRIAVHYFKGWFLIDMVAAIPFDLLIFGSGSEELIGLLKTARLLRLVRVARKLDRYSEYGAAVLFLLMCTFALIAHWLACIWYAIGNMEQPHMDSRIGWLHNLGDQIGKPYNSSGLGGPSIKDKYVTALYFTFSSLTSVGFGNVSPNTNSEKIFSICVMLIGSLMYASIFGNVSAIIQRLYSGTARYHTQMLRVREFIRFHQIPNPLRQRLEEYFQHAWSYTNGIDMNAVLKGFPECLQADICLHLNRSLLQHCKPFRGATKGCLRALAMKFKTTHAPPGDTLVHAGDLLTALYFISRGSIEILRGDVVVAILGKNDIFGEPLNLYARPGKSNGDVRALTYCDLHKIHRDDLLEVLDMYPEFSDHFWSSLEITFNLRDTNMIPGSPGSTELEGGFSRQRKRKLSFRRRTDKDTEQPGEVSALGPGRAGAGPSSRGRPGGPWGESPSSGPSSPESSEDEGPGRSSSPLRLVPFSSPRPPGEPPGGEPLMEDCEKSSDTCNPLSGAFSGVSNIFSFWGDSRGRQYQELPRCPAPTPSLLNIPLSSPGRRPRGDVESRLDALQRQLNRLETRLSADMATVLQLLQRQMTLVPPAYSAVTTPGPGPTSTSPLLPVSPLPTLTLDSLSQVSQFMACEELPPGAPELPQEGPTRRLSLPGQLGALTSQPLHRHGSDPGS

Row | Structure (SMILES) | hERG current change (%, negative = inhibition) at 1uM
1 | CCCCN(Cc1ccccc1)C(=O)C1CCC(=O)N(CCc2ccccn2)C1 (centres unmarked) | 4.02%
2 | CN(C)c1ccc(NC(=O)c2sc(SCC(=O)Nc3nccs3)nc2N)cc1 | 6%
3 | Cc1ccc(NC(=O)COC(=O)c2ccc3c(c2)NC(=O)C2CCCN32)cc1 (centres unmarked) | -5.26%
4 | CCc1ccc(C(CC(=O)c2ccc(Cl)cc2)C(=O)O)cc1 (centres unmarked) | 20%
5 | COc1ccc(N(CC(=O)Nc2ccc(S(=O)(=O)N3CCCCC3)cc2)S(C)(=O)=O)cc1OC | 0.357%
6 | O=C(Nc1ccc2c(c1)CCC2)C1CCN(c2c3c(nc4ncnn24)CCC3)CC1 | 2.36%
7 | O=C(Nc1ccccc1Sc1ccccc1)c1ccccc1 | 10.8%
8 | COc1cc(/C=C/C(=O)OCC(=O)Nc2ccc(Cl)cn2)ccc1O | 6.01%
9 | CCc1cc(C(=O)OC)c(N2C(=O)C3C4C=CC(C4)C3C2=O)s1 (centres unmarked) | 22.2%
10 | COc1cccc(CN2CC(C(=O)N3CCCCCCC3)CCC2=O)c1 (centres unmarked) | 9.63%
11 | CC(C)=CCC/C(C)=C/C=N/NC(=O)c1cccc([N+](=O)[O-])c1 | 0.0005%
12 | CSc1ncccc1C(=O)NC(C)CCc1ccccc1 (centres unmarked) | 11.5%
13 | COC(CNC(=O)c1ccc2c(c1)nc(C)n2-c1cc(C)cc(C)c1)OC | 9.08%
14 | Br.c1ccc(-c2ccccc2OCc2nnc3n2CCC3)cc1 | 9.06%
15 | COc1ccc(OC)c(C(C(=O)NC2CCCCC2)N(C(=O)c2ccccn2)c2cccnc2)c1 (centres unmarked) | 11.6%
16 | CC(C)c1ccc(NC(=O)c2ccc(NS(C)(=O)=O)cc2)cc1 | 14%
17 | COc1ccccc1-c1nc(C#N)c(N2CCN(C(=O)c3ccco3)CC2)o1 | 8.37%
18 | CNc1nc(N)c(C(=O)C(C)(C)C)s1 | -3.7%
19 | N#Cc1ccccc1NC(=O)CN1CCN(c2ccccn2)CC1 | -4.25%
20 | CCCCC(=O)Nc1c(C)cc(C)cc1Cl | 13.5%
21 | Cc1ccc2nc(SCC(=O)NCC3CCCO3)c(C#N)cc2c1 (centres unmarked) | 14.7%
22 | Cc1ccc(C(=O)NC(O)C(Cl)(Cl)Cl)cc1 (centres unmarked) | 10.5%
23 | FC(F)(F)c1cc(Cl)c2nnc(-c3ccccn3)n2c1 | 5.06%

Row | Structure (SMILES) | hERG current change (%, negative = inhibition) at 1uM
24 | COc1ccc(C)cc1NC(=O)CNC(=O)[C@@H]1Cc2ccccc2CN1 | -1.48%
25 | CC[n+]1ccccc1/C=C/Nc1ccccc1.[I-] | -5.67%
26 | COC(=O)CNC(=O)c1cccc(Cl)c1 | 8.85%
27 | O=C(CSc1nnc(CNC(=O)c2ccco2)o1)Nc1ccc(Cl)cc1 | 15.9%
28 | CCCCNC(=S)NNC(=O)CCn1nc(C)c(Br)c1C | 11%
29 | FC(F)(Cl)c1nnc2ccc(Cl)nn12 | 17.8%
30 | CN(C)c1ccc(-c2cc(O)c3ncccc3c2)cc1.O=C(O)C(F)(F)F | 15.8%
31 | CC(=O)Nc1ccccc1NC(=O)C/C(C)=N/NC(=O)c1ccccn1 | 12.6%
32 | c1ccc2c(NCCCN3CCOCC3)c3ccccc3nc2c1 | -54.2%
33 | CN(C)C(=O)CSc1n[nH]c(=O)n1CCc1ccccc1 | 15.1%
34 | CN(C(=O)c1coc(=O)c2ccccc12)c1ccc(Br)cc1 | 6.53%
35 | O=C(Nc1ccccc1Cl)C1Cc2ccccc2O/C1=N\O (centres unmarked) | 12%
36 | CC(C)(C)c1ccc(N2C(=O)CC(c3ccccc3)C2=O)cc1 (centres unmarked) | 13.6%
37 | COc1ccc(C)cc1NC(=O)CSc1nnc2ccc(-c3ccccn3)nn12 | 10.4%
38 | O=C(NCC1COc2ccccc2O1)c1cccs1 (centres unmarked) | 4.27%
39 | O=C(CSc1ncnc2c1cnn2-c1ccc(Cl)cc1)NCc1ccc2c(c1)OCO2 | 4.76%
40 | C=CCn1cc(C(C)=O)c(=O)[nH]c1=O | 25.9%
41 | Cc1ccccc1NC(=S)Nc1ccc2[nH]c(=O)[nH]c2c1 | 17.7%
42 | Cc1cc(C)n(-c2nc3ccccc3c(=O)n2OCC#N)n1 | 6.97%
43 | CC1CCC(NC(=O)c2nc(Cn3ccc([N+](=O)[O-])n3)no2)CC1 (centres unmarked) | -10.6%
44 | O=C(NCCN1CCC(Cc2ccccc2)CC1)C1CCCN(S(=O)(=O)c2cnc[nH]2)C1 (centres unmarked) | 12.4%
45 | Cc1nc(NC(=S)NC(=O)c2ccccc2)sc1C | 6%
46 | CC(OC(=O)c1ccc2ncsc2c1)C(=O)NCc1ccccc1 (centres unmarked) | 9.98%

Row | Structure (SMILES) | hERG current change (%, negative = inhibition) at 1uM
47 | COC(=O)c1ccc(COC(=O)c2nn(C)c(=O)c3ccccc23)cc1 | 20.7%
48 | CC1NC(=O)NC1CCCCCC(=O)NCCc1ccccc1 (centres unmarked) | 5.54%
49 | COc1ccc(CC(=O)NC(=S)Nc2ccc(S(=O)(=O)NC(C)(C)C)cc2)cc1 | 16.8%
50 | O=C(CCCNC(=O)c1ccc(Cl)cc1)Nc1ccc(Br)cc1 | 10.1%
51 | COc1ccc(NC(=O)CSCC(=O)N2CCCc3ccccc32)cc1 | 17.3%
52 | O=C(NCCSCc1ccccc1)c1ccccc1 | 5.61%
53 | CN(C(=O)CSc1nncn1-c1ccccc1)c1ccccc1 | 10.5%
54 | N#Cc1ccccc1CSc1nc2ccc(NC(=O)c3ccccc3C(=O)O)cc2s1 | 12.7%
55 | C[C@@H](C(=O)NCc1ccccc1)[C@H]1C[C@]1(C)[C@H](NC(=O)OCc1ccccc1)c1ccccc1 | 9.74%
56 | Cc1ccc2c(CN3C(=O)NC(C)(c4ccc5c(c4)OCO5)C3=O)cc(=O)oc2c1 (centres unmarked) | 8.31%
57 | Cc1ccc(NC(=O)[C@@H]2CCCN2S(=O)(=O)c2ccccc2F)cc1 | 9.97%
58 | Cc1ccc(C(=O)N/N=C\c2ccc(-c3ccc(Cl)c(Cl)c3)o2)cn1 | -10.3%
59 | Cc1ccc(CNC(=O)c2c(-c3ccccc3Cl)noc2C)cc1 | 16%
60 | CCC1S/C(=N/N=C/c2ccco2)N(Cc2ccc(F)cc2)C1=O (centres unmarked) | 10.2%
61 | Cc1cc(NC(=O)Nc2ccc(Cl)cc2)no1 | 11.7%
62 | COc1ccccc1-n1nnnc1SCc1cc2c(cc1Br)OCO2 | -7.61%
63 | CCC(NC(=S)NCc1ccccc1)C(=O)O (centres unmarked) | 15.2%
64 | CCC1CCCCN1C(=O)CSc1nnc(CNC(=O)COc2ccc(Cl)cc2)o1 (centres unmarked) | 0.44%
65 | COC(=O)c1[nH]c2cccc(OC)c2c1NC(=O)CN1CCC(C(N)=O)(N2CCCCC2)CC1 | 6.17%
66 | O=C(NS(=O)(=O)c1ccccc1)c1cccc(Br)c1 | 14.9%
67 | CCCCSc1nc2c(cnn2-c2ccc(C)c(C)c2)c(=O)[nH]1 | 5.85%
68 | CCOC(=O)/C(=N\Nc1ccccc1Cl)N(C)C1CCCCC1 | 7.91%
69 | CN(CC(=O)Nc1ccc(F)cc1)C(=O)COc1ccc([N+](=O)[O-])cc1Cl | -12%

Row | Structure (SMILES) | hERG current change (%, negative = inhibition) at 1uM
70 | CCN=C1SC(C(=O)Nc2cccc(Br)c2)CC(=O)N1CC (centres unmarked) | 11.2%
71 | COc1cccc(NC(=O)N2CCCC2C(=O)NC(C)C)c1 (centres unmarked) | 14.5%
72 | COc1ccc(N(C(=O)COc2cccc(C)c2)S(=O)(=O)c2ccc(C)cc2)cc1 | 4.79%
73 | CCOC(=O)C1C(=O)NC(N2CCc3ccccc32)=NC1c1ccccc1 (centres unmarked) | 5.25%
74 | Cc1ccc(-c2nnc(Nc3ccc(OCC(N)=O)cc3)c3ccccc23)cc1S(N)(=O)=O | 2.73%
75 | CCOC(=O)CC1Sc2ccccc2NC1=O (centres unmarked) | -7.75%
76 | Cc1ccc(S(=O)(=O)CC(O)COc2ccccc2C#N)cc1 (centres unmarked) | 13.7%
77 | CN(C)CCNc1ncnc2oc(-c3ccccc3)c(-c3ccccc3)c12 | -10.4%
78 | Nc1nnc(CCOc2ccccc2Cl)s1 | 9.1%
79 | CCOCCCNC(=O)c1c(N)n(-c2ccc3c(c2)OCO3)c2nc3ccccc3nc12 | 4.66%
80 | Cc1cc(NC(=O)CSCC(=O)N(C)Cc2c(F)cccc2Cl)no1 | 12.7%
81 | CC1=C(n2nnc3ccccc32)C(c2ccccc2)C(C#N)=C(N)O1 (centres unmarked) | 3.29%
82 | CCOC(=O)Cn1cc(/C=N/N2C(=O)C3C4C=CC(C4)C3C2=O)c2ccccc21 (centres unmarked) | 1.5%
83 | Cc1cc2c(ncn2C)c(NS(=O)(=O)c2ccc(Cl)cc2)c1C | 9.08%
84 | Cc1cc(C(=O)Nc2ccccc2C)on1 | 7.46%
85 | O=C(NNS(=O)(=O)c1ccc(F)cc1)c1ccc([N+](=O)[O-])cc1Cl | 9.93%
86 | COc1cccc(N2C(=O)CC(=O)NC2=O)c1 | -1.31%
87 | Cc1cc(C)c2[nH]c3nc(SCC(=O)O)nnc3c2c1 | 16.7%
88 | O=C(c1cc2cc(Cl)cc(Cl)c2oc1=O)N1CCOCC1 | 9.66%
89 | Cc1cccc(OCc2nnc(SCC(=O)NCCc3ccccc3)o2)c1 | 7.5%
90 | Nc1nnc(CSCc2cccc(Br)c2)s1 | 4.42%
91 | COC(=O)c1ccccc1NC(=O)c1cc(-c2ccc(O)cc2)on1 | 5.09%
92 | NC(=O)N/N=C/c1ccc([N+](=O)[O-])o1 | 8.71%
